The supplement of paper PMC12423691
Some of the results follow. Binding of human transcription factors and regulators to the viral nucleoprotein by AlphaScreen, crude cell-free proteins, amounts not normalised, one pass. Fold of the Venus control; higher = more signal. No active / inactive call. Single-pass screen; sequences are the whole Swiss-Prot entries looked up by name.

B1: ESRRA, P11474 (protein)
chain: MSSQVVGIEPLYIKAEPASPDSPKGSSETETEPPVALAPGPAPTRCLPGHKEEEDGEGAGPGEQGGGKLVLSSLPKRLCLVCGDVASGYHYGVASCEACKAFFKRTIQGSIEYSCPASNECEITKRRRKACQACRFTKCLRVGMLKEGVRLDRVRGGRQKYKRRPEVDPLPFPGPFPAGPLAVAGGPRKTAAPVNALVSHLLVVEPEKLYAMPDPAGPDGHLPAVATLCDLFDREIVVTISWAKSIPGFSSLSLSDQMSVLQSVWMEVLVLGVAQRSLPLQDELAFAEDLVLDEEGARAAGLGELGAALLQLVRRLQALRLEREEYVLLKALALANSDSVHIEDAEAVEQLREALHEALLEYEAGRAGPGGGAERRRAGRLLLTLPLLRQTAGKVLAHFYGVKLEGKVPMHKLFLEMLEAMMD
B2: HNF4A, P41235 (protein)
chain: MRLSKTLVDMDMADYSAALDPAYTTLEFENVQVLTMGNDTSPSEGTNLNAPNSLGVSALCAICGDRATGKHYGASSCDGCKGFFRRSVRKNHMYSCRFSRQCVVDKDKRNQCRYCRLKKCFRAGMKKEAVQNERDRISTRRSSYEDSSLPSINALLQAEVLSRQITSPVSGINGDIRAKKIASIADVCESMKEQLLVLVEWAKYIPAFCELPLDDQVALLRAHAGEHLLLGATKRSMVFKDVLLLGNDYIVPRHCPELAEMSRVSIRILDELVLPFQELQIDDNEYAYLKAIIFFDPDAKGLSDPGKIKRLRSQVQVSLEDYINDRQYDSRGRFGELLLLLPTLQSITWQMIEQIQFIKLFGMAKIDNLLQEMLLGGSPSDAPHAHHPLHPHLMQEHMGTNVIVANTMPTHLSNGQMCEWPRPRGQAATPETPQPSPPGGSGSEPYKLLPGAVATIVKPLSAIPQPTITKQEVI
B3: STAT4, Q14765 (protein)
chain: MSQWNQVQQLEIKFLEQVDQFYDDNFPMEIRHLLAQWIENQDWEAASNNETMATILLQNLLIQLDEQLGRVSKEKNLLLIHNLKRIRKVLQGKFHGNPMHVAVVISNCLREERRILAAANMPVQGPLEKSLQSSSVSERQRNVEHKVAAIKNSVQMTEQDTKYLEDLQDEFDYRYKTIQTMDQSDKNSAMVNQEVLTLQEMLNSLDFKRKEALSKMTQIIHETDLLMNTMLIEELQDWKRRQQIACIGGPLHNGLDQLQNCFTLLAESLFQLRRQLEKLEEQSTKMTYEGDPIPMQRTHMLERVTFLIYNLFKNSFVVERQPCMPTHPQRPLVLKTLIQFTVKLRLLIKLPELNYQVKVKASIDKNVSTLSNRRFVLCGTNVKAMSIEESSNGSLSVEFRHLQPKEMKSSAGGKGNEGCHMVTEELHSITFETQICLYGLTIDLETSSLPVVMISNVSQLPNAWASIIWYNVSTNDSQNLVFFNNPPPATLSQLLEVMSWQFSSYVGRGLNSDQLHMLAEKLTVQSSYSDGHLTWAKFCKEHLPGKSFTFWTWLEAILDLIKKHILPLWIDGYVMGFVSKEKERLLLKDKMPGTFLLRFSESHLGGITFTWVDHSESGEVRFHSVEPYNKGRLSALPFADILRDYKVIMAENIPENPLKYLYPDIPKDKAFGKHYSSQPCEVSRPTERGDKGYVPSVFIPISTIRSDSTEPHSPSDLLPMSPSVYAVLRENLSPTTIETAMKSPYSAE
B4: PCGF2, P35227 (protein)
chain: MHRTTRIKITELNPHLMCALCGGYFIDATTIVECLHSFCKTCIVRYLETNKYCPMCDVQVHKTRPLLSIRSDKTLQDIVYKLVPGLFKDEMKRRRDFYAAYPLTEVPNGSNEDRGEVLEQEKGALSDDEIVSLSIEFYEGARDRDEKKGPLENGDGDKEKTGVRFLRCPAAMTVMHLAKFLRNKMDVPSKYKVEVLYEDEPLKEYYTLMDIAYIYPWRRNGPLPLKYRVQPACKRLTLATVPTPSEGTNTSGASECESVSDKAPSPATLPATSSSLPSPATPSHGSPSSHGPPATHPTSPTPPSTASGATTAANGGSLNCLQTPSSTSRGRKMTVNGAPVPPLT
B5: TAF7, Q15545 (protein)
chain: MSKSKDDAPHELESQFILRLPPEYASTVRRAVQSGHVNLKDRLTIELHPDGRHGIVRVDRVPLASKLVDLPCVMESLKTIDKKTFYKTADICQMLVSTVDGDLYPPVEEPVASTDPKASKKKDKDKEKKFIWNHGITLPLKNVRKRRFRKTAKKKYIESPDVEKEVKRLLSTDAEAVSTRWEIIAEDETKEAENQGLDISSPGMSGHRQGHDSLEHDELREIFNDLSSSSEDEDETQHQDEEDINIIDTEEDLERQLQDKLNESDEQHQENEGTNQLVMGIQKQIDNMKGKLQETQDRAKRQEDLIMKVENLALKNRFQAVLDELKQKEDREKEQLSSLQEELESLLEK
B6: DNAJA3, Q96EY1 (protein)
chain: MAARCSTRWLLVVVGTPRLPAISGRGARPPREGVVGAWLSRKLSVPAFASSLTSCGPRALLTLRPGVSLTGTKHNPFICTASFHTSAPLAKEDYYQILGVPRNASQKEIKKAYYQLAKKYHPDTNKDDPKAKEKFSQLAEAYEVLSDEVKRKQYDAYGSAGFDPGASGSQHSYWKGGPTVDPEELFRKIFGEFSSSSFGDFQTVFDQPQEYFMELTFNQAAKGVNKEFTVNIMDTCERCNGKGNEPGTKVQHCHYCGGSGMETINTGPFVMRSTCRRCGGRGSIIISPCVVCRGAGQAKQKKRVMIPVPAGVEDGQTVRMPVGKREIFITFRVQKSPVFRRDGADIHSDLFISIAQALLGGTARAQGLYETINVTIPPGTQTDQKIRMGGKGIPRINSYGYGDHYIHIKIRVPKRLTSRQQSLILSYAEDETDVEGTVNGVTLTSSGGSTMDSSAGSKARREAGEDEEGFLSKLKKMFTS
B7: ZNF75D, P51815 (protein)
chain: MAMRELNADSCSSPQMGAMWETSGSVKENSSQSKKYSTKIENLGPESACRHFWSFRYHEATGPLETISQLQKLCHQWLRPEIHSKEQILEMLVLEQFLSILPKETQNWVQKHHPQNVKQALVLVEFLQREPDGTKNEVTAHELGKEAVLLGGTAVAPGFKWKPAEPQPMGVFQKEYWNTYRVLQEQLGWNTHKETQPVYERAVHDQQMLALSEQKRIKHWKMASKLILPESLSLLTFEDVAVYFSEEEWQLLNPLEKTLYNDVMQDIYETVISLGLKLKNDTGNDHPISVSTSEIQTSGCEVSKKTRMKIAQKTMGRENPGDTHSVQKWHRAFPRKKRKKPATCKQELPKLMDLHGKGPTGEKPFKCQECGKSFRVSSDLIKHHRIHTGEKPYKCQQCDRRFRWSSDLNKHFMTHQGIKPYRCSWCGKSFSHNTNLHTHQRIHTGEKPFKCDECGKRFIQNSHLIKHQRTHTGEQPYTCSLCKRNFSRRSSLLRHQKLHRRREACLVSPN

Target: nucleoprotein N of Crimean-Congo hemorrhagic fever virus
Assay: AlphaScreen luminescence signal relative to Venus negative control (fold); higher = stronger binding to CCHFV N
Protocol: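 AlphaScreen binding of cell-free made, FLAG-GST-tagged human transcription factors and regulators (crude translation products) to biotinylated N protein; signal as fold of the FLAG-GST-Venus control. One pass.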

| Binder | AlphaScreen luminescence signal |
| --- | --- |
| B1 | 3.35 |
| B2 | 25.7 |
| B3 | 2.47 |
| B4 | 1.4 |
| B5 | 1.86 |
| B6 | 2.37 |
| B7 | 3.72 |
